The results in this text go back to the supplement of paper PMC10126150.

Sequences with one replicate were seen in a single cluster, so their values are uncertain.

The test system of this series is ATP. The series can be described thus: switch fluorescence ratio, 500 uM ATP over buffer (Cy3 cluster intensity, sum of 5 cycles each) (fold (ratio)); higher = stronger signal-on switching upon ATP binding; sequences stand for … in TCGTCGGCAGCGTCAGATGTGTATAAGAGACAGTTTTTTTTTTTTTTTTTTTTTTTTT…TC. As to conditions: aptamer strand: ATP DNA aptamer (quencher-CACCTGGGGGAGTATTGCGGAGGAAGG + anchor), 100 nM annealed; ATP concentration: 500 uM; one replicate. An outline of the steps: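 Five buffer/ATP imaging cycles were run on Cy3-labelled switching-strand clusters on a modified Illumina MiSeq flow-cell, with NaOH stripping and re-annealing between cycles. In each cycle, clusters annealed to 100 nM quencher-labelled ATP aptamer were imaged in selection buffer, then after 15 min with 500 uM ATP at 22 °C. Per cluster, the fluorescence ratio is summed target-cycle over summed buffer-cycle Cy3 intensity, averaged per switch-domain sequence. Only clusters within 100-1000 RFU were kept.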
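Note: ATP exposure 15 min at 22 °C before imaging.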

Regarding TATCGGAAAA, the switch fluorescence ratio was found to be 1.

In the case of ACAACTATGG, the switch fluorescence ratio was determined as 1.03.

As to AGCTCGCACA, the switch fluorescence ratio was determined as 1.3.

For the sequence CGACAAGTT, the switch fluorescence ratio was 1.05.

In the case of ACATTTGGGC, the switch fluorescence ratio came out at 0.954.

CTTGGAGGTA: the switch fluorescence ratio worked out at 0.979.

As to TTACGATATA, the switch fluorescence ratio was determined as 1.05.

Consider GTGGTAAGAG, for which the switch fluorescence ratio came out at 1.

With TTTGCTATGA, the switch fluorescence ratio came out at 0.978.

Take ACCCCTATCT: the switch fluorescence ratio stood at 1.11.

Turning to CCGGTAAAGG, the switch fluorescence ratio is 1.1.

Regarding AACTATATGA, the switch fluorescence ratio came to 1.03.

Turning to AATGGTTATT, the switch fluorescence ratio was 1.01.

AATATTCCTC: the switch fluorescence ratio came to 1.14.

As to TATGGCTGG, the switch fluorescence ratio was 1.01.

Consider GGGAACCGCA, for which the switch fluorescence ratio was 1.08.

Turning to ACCATTCGG, the switch fluorescence ratio was 0.997.

Consider TAGTAGCCGG, for which the switch fluorescence ratio was determined as 1.05.

In the case of CCGGCCTCGG, the switch fluorescence ratio stood at 1.

As to GTCTCTGTTT, the switch fluorescence ratio amounted to 0.945.

Turning to AGAGAGTGGG, the switch fluorescence ratio was found to be 0.993.

As to CTTCTCAACA, the switch fluorescence ratio amounted to 1.02.

Regarding CTGTGTGGGG, the switch fluorescence ratio was determined as 0.965.

Turning to TTAGCCTTCG, the switch fluorescence ratio was 1.33.

For the sequence TAATGGCAGA, the switch fluorescence ratio came to 0.973.

As to TTCCTCACCT, the switch fluorescence ratio worked out at 1.23.

For CCCGCTATTG, the switch fluorescence ratio was determined as 1.99.

GAACCATAAC: the switch fluorescence ratio worked out at 1.09.

As to CCACGGTGTT, the switch fluorescence ratio was 1.11.

In the case of AATGGGTTT, the switch fluorescence ratio was determined as 1.02.

Consider ATCGTTTCAC, for which the switch fluorescence ratio is 0.973.

On to CGCTTAGTAA, for which the switch fluorescence ratio worked out at 1.01.

As for GTGTGGTTCA, the switch fluorescence ratio turned out to be 0.972.

Take CGAGGCTTTT: the switch fluorescence ratio amounted to 1.02.

For TAGCACAT, the switch fluorescence ratio turned out to be 1.06.

Turning to GCAATTAGTG, the switch fluorescence ratio was 1.04.

As for TGCAATTTCT, the switch fluorescence ratio is 1.12.

In the case of TTGCTTGTGC, the switch fluorescence ratio stood at 1.02.

On to AAGCATCTGT, for which the switch fluorescence ratio was determined as 1.01.

For AGACCGGCGA, the switch fluorescence ratio was determined as 0.991.

As to TGGCGGACTG, the switch fluorescence ratio worked out at 1.22.

As for ATAGGCGTCA, the switch fluorescence ratio is 0.99.

Regarding CCAGATATGC, the switch fluorescence ratio was found to be 1.15.

Consider TAACGGATGA, for which the switch fluorescence ratio was found to be 0.966.

In the case of CGTCTTAATG, the switch fluorescence ratio is 0.987.

As to TGGGATTTG, the switch fluorescence ratio amounted to 0.977.

Turning to ATATAGATTC, the switch fluorescence ratio is 1.05.

Take GGCAGCCCCC: the switch fluorescence ratio came to 1.05.

Turning to ACGGCGTGAT, the switch fluorescence ratio worked out at 0.976.

For the sequence CACATAGCCG, the switch fluorescence ratio is 1.19.

Regarding TTGTCTCAGG, the switch fluorescence ratio turned out to be 0.979.

Take CACGATGCT: the switch fluorescence ratio is 1.05.

ACTAGGAACA: the switch fluorescence ratio came out at 1.05.

AAATTACTAC: the switch fluorescence ratio is 1.06.

In the case of GCGTTGATCA, the switch fluorescence ratio was 0.972.

On to CGATGGCCAT, for which the switch fluorescence ratio came to 0.991.

As for GATAACGTTG, the switch fluorescence ratio amounted to 1.04.

Regarding AGGCTGGGCT, the switch fluorescence ratio came out at 0.964.

Regarding GACATCTGGC, the switch fluorescence ratio was found to be 0.985.

In the case of CGCTTCAAGC, the switch fluorescence ratio was 1.01.

GCTCCCGCGC: the switch fluorescence ratio was 2.76.

With GCTTTACGGG, the switch fluorescence ratio came to 1.

Take GTGGTGTGTA: the switch fluorescence ratio was 0.953.

Turning to GGTGAACGTT, the switch fluorescence ratio was 0.993.

For the sequence CAAGCCTCTG, the switch fluorescence ratio stood at 1.01.

GACGGTTTAA: the switch fluorescence ratio came to 1.02.

With AGACGGTCAC, the switch fluorescence ratio came to 1.31.

As to CATATCAGGG, the switch fluorescence ratio came to 1.04.

For the sequence AGGTAGAGTT, the switch fluorescence ratio came out at 0.98.

Take ATGCCCCCCG: the switch fluorescence ratio was 1.08.

With TAAATTAGTG, the switch fluorescence ratio stood at 0.992.

On to CGAGACGGGA, for which the switch fluorescence ratio was 0.999.

Consider TTCGTGGACT, for which the switch fluorescence ratio was found to be 0.99.

Consider ATTATTTCGA, for which the switch fluorescence ratio stood at 0.976.

AACCTAGACC: the switch fluorescence ratio stood at 1.11.

Regarding TTTTACGTTC, the switch fluorescence ratio was 0.941.

As to GCAAAAGGCA, the switch fluorescence ratio was 1.06.

Take CGCAGTTTGT: the switch fluorescence ratio was 1.06.

Consider TATATTACAC, for which the switch fluorescence ratio came out at 1.03.

GTATGCAGGA: the switch fluorescence ratio amounted to 0.999.

In the case of ACGATGGGCC, the switch fluorescence ratio turned out to be 0.996.

Turning to CACAAACAGG, the switch fluorescence ratio worked out at 1.45.

With GGCGAACTCG, the switch fluorescence ratio turned out to be 1.27.

GTGAAGCCGC: the switch fluorescence ratio was determined as 1.03.

GAAATCGGG: the switch fluorescence ratio was found to be 0.946.

Consider TTTAATGACC, for which the switch fluorescence ratio turned out to be 1.06.

On to CACCATGCGA, for which the switch fluorescence ratio came to 1.11.

Consider CATTAAGTCC, for which the switch fluorescence ratio amounted to 0.988.

CCCCTTTTAA: the switch fluorescence ratio was found to be 0.995.

With AAGTAACAAT, the switch fluorescence ratio is 0.991.

Turning to GAGCTTCGTA, the switch fluorescence ratio amounted to 1.01.

Turning to GGTCGAGTTG, the switch fluorescence ratio turned out to be 0.989.

On to CACATAATGC, for which the switch fluorescence ratio came to 1.16.

For AGGCCAATA, the switch fluorescence ratio came out at 1.04.

With TATTGAGGAT, the switch fluorescence ratio is 0.966.

On to GATTCTCATC, for which the switch fluorescence ratio is 0.955.

On to ACAGTAACTC, for which the switch fluorescence ratio was found to be 1.18.

As to CGTCCATTTA, the switch fluorescence ratio amounted to 0.961.

In the case of GAGGGTTACC, the switch fluorescence ratio was found to be 0.893.

TATAAATAAG: the switch fluorescence ratio was 0.998.

As to CTCCTATTTC, the switch fluorescence ratio worked out at 1.08.

With GGAACACCAT, the switch fluorescence ratio was determined as 1.03.

Take ACGCCCATTC: the switch fluorescence ratio was determined as 1.3.

As for GATGCAGAGC, the switch fluorescence ratio stood at 1.02.

Turning to CAATCCTTTG, the switch fluorescence ratio turned out to be 0.998.

Take GCCGTGATTG: the switch fluorescence ratio was determined as 0.991.

With ACGGGCGAA, the switch fluorescence ratio worked out at 1.

Take GGACATAAAA: the switch fluorescence ratio was determined as 1.01.

In the case of CGTATCGT, the switch fluorescence ratio was found to be 1.

In the case of GAAAGCACAA, the switch fluorescence ratio worked out at 1.14.

As to ACCGCATGTT, the switch fluorescence ratio came out at 1.5.

On to ATGTCCGTAT, for which the switch fluorescence ratio stood at 0.855.

On to GGATTTGTT, for which the switch fluorescence ratio is 0.963.

Consider TTATGCCCGT, for which the switch fluorescence ratio worked out at 0.969.

With AGCCTCTGGT, the switch fluorescence ratio came out at 1.04.

For TCGTAGCGAA, the switch fluorescence ratio stood at 2.27.

With TCTTGCAGTA, the switch fluorescence ratio was 1.09.

Consider TCTTCTTTTA, for which the switch fluorescence ratio came out at 1.05.

For the sequence GATGTGGCGG, the switch fluorescence ratio came out at 1.01.

On to CGGGCACGGG, for which the switch fluorescence ratio amounted to 1.01.
